{"source": "the supplement of paper PMC11417369", "note": "± gives the standard deviation of the averaged measurements. Some of the results follow.", "data": [{"system": "PfAP2-I AP2 domain 3 (GST-tagged)", "test": "gcPBM binding intensity (ln(normalized median fluorescence intensity)); higher = stronger DNA binding", "outline": "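Each value is the highest Masliner-normalised natural-log median intensity across replicate spots of either orientation of a probe. The probes were primer-extended double-stranded 36-bp intergenic genomic sequences on an Agilent 4 × 180k array, alongside negative controls, exposed for 1 h to GST-tagged P. falciparum DNA-binding domains expressed in E. coli. Bound protein was picked up with Alexa488 anti-GST antibody and scanned at 488 nm.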", "values": [{"sequence": "AAAAAAAAAAAAAACACACATACATACATACATATA [CACACA_site4121]", "gcPBM binding intensity (ln)": "8.2 ± 0.58"}, {"sequence": "TTATATTAGCCGATGGTGCATATATTTATAGGAAAA [GTGCAC_site9518]", "gcPBM binding intensity (ln)": "10.8 ± 0.54"}, {"sequence": "ATAATTTTTTAGATCACACATATAAATAAATAAATA [CACACA_site5175]", "gcPBM binding intensity (ln)": "7.73 ± 0.52"}, {"sequence": "TTAGATAGATTTGTACGTACTTATTATAACGTATCA [XGTACX_site5067]", "gcPBM binding intensity (ln)": "7.845 ± 0.035"}, {"sequence": "AATTTATAAATAATTAATTTGATAAATTATAAAGGG [GTGCAC_negctrl_site544]", "gcPBM binding intensity (ln)": "7.88 ± 0.43"}, {"sequence": "ACATATTTATATGTCTGTACAAATATGCAATTTTTT [XGTACX_site5516]", "gcPBM binding intensity (ln)": "7.57 ± 0.5"}, {"sequence": "TTTATGGATGTGTATGCATGCCTAAATAAATATATG [TGCATGCA_site916]", "gcPBM binding intensity (ln)": "7.88 ± 0.52"}, {"sequence": "ACGACATATGGATGATGTACTATCTTTATTATACAT [XGTACX_site6857]", "gcPBM binding intensity (ln)": "7.53 ± 0.63"}, {"sequence": "TAAATAATGTAAAAAACATCATCAAAATGTTAATTA [CACACA_negctrl_site1768]", "gcPBM binding intensity (ln)": "7.23 ± 0.17"}, {"sequence": "TCTCAAAAAAAAAAAAAAAAAAAAAAATTAAAAAAT [CACACA_negctrl_site1120]", "gcPBM binding intensity (ln)": "7.27 ± 0.67"}, {"sequence": "ATAAAGGTTTTCCAAGCATGCCACATAGTGACATAC [TGCATGCA_site193]", "gcPBM binding intensity (ln)": "7.59 ± 0.71"}, {"sequence": "CAATATAAAATAAAATGTACTTGTAGTAAAGGGATA [XGTACX_site1452]", "gcPBM binding intensity (ln)": "7.93 ± 0.61"}, {"sequence": "GATGAGGACAAACACACACACATAAGTTGATACATA [CACACA_site3424]", "gcPBM binding intensity (ln)": "8.15 ± 0.33"}, {"sequence": "AGATAGATACATACACGTACATATATATATACACAT [XGTACX_site4755]", "gcPBM binding intensity (ln)": "8.04 ± 0.47"}, {"sequence": "AAGGTTATATAAAAAAGTACGCATAAGATGTTGTTC [XGTACX_site807]", "gcPBM binding intensity (ln)": "8.09 ± 0.46"}, {"sequence": "TACTGTATTATAATTATGATTGACGAAATTAAAAAT [GTGCAC_negctrl_site358]", "gcPBM binding intensity (ln)": "7.83 ± 0.45"}, {"sequence": "TGAAATTTATAATAGTGTACAAAGAAAAAAAAAAAA [XGTACX_site4965]", "gcPBM binding intensity (ln)": "8.14 ± 0.89"}, {"sequence": "ATTAGAAAAAAGATAGCACACACGGCCCAATATATA [CACACA_site2417]", "gcPBM binding intensity (ln)": "8.04 ± 0.49"}, {"sequence": "AAAATAACATAAAAGAGTACTAAACCAAGATCAAAT [XGTACX_site7973]", "gcPBM binding intensity (ln)": "7.99 ± 0.96"}, {"sequence": "TATATTTATATTCTTACATTTTTTATGTTTTTTTTT [CACACA_negctrl_site1017]", "gcPBM binding intensity (ln)": "7.32 ± 0.4"}, {"sequence": "TAAACAGACATATAAACACACATATAAACCGACATA [CACACA_site2478]", "gcPBM binding intensity (ln)": "7.73 ± 0.47"}, {"sequence": "GTCATATTATTCTTTTCACACACGCGTTAATAATAA [CACACA_site9302]", "gcPBM binding intensity (ln)": "9.02 ± 0.52"}, {"sequence": "TATTATAATATGTAGCGTACATTTTTTCTTTCTTTT [XGTACX_site7831]", "gcPBM binding intensity (ln)": "7.61 ± 0.59"}, {"sequence": "TATAAATATATATATACACACACATACACAAAAAAA [CACACA_site9191]", "gcPBM binding intensity (ln)": "8.13 ± 0.4"}, {"sequence": "ATATATTATATGTACACACACATATAAGGGATTATA [CACACA_site5]", "gcPBM binding intensity (ln)": "8.03 ± 0.13"}, {"sequence": "AAAAATATGAAGACACAATATAGAAATAAAAATATA [XGTACX_negctrl_site244]", "gcPBM binding intensity (ln)": "7.41 ± 0.65"}, {"sequence": "TATTACTTGATATATACACACATATAACATAAATGC [CACACA_site7783]", "gcPBM binding intensity (ln)": "7.68 ± 0.49"}, {"sequence": "ATACCTAAAAAATATACACACATATTTATAAATATA [CACACA_site7260]", "gcPBM binding intensity (ln)": "7.8 ± 0.48"}, {"sequence": "TAGAATAAACCAAGAAGTACTGTTTAATGAAAAGTA [XGTACX_site5712]", "gcPBM binding intensity (ln)": "7.79 ± 0.64"}, {"sequence": "TATAAAAATAATATTACACACATGTAAAATGCCCGT [CACACA_site7522]", "gcPBM binding intensity (ln)": "7.96 ± 0.79"}, {"sequence": "TGAAAATAATTATAGGTGCATAAACATACGGATCTT", "gcPBM binding intensity (ln)": "10.8 ± 0.27"}, {"sequence": "TTTTTTTTGTATTTTTCACACACTCTCTATCTCTCT [CACACA_site8655]", "gcPBM binding intensity (ln)": "8.12 ± 0.35"}, {"sequence": "ATATATTAATAATAAATTAAAAGGAGTAACATTTTC [CACACA_negctrl_site320]", "gcPBM binding intensity (ln)": "7.62 ± 0.59"}, {"sequence": "TTTTTTTTTTTCTTTGCACACAGATAACTTGAAATT [CACACA_site2184]", "gcPBM binding intensity (ln)": "9.26 ± 0.43"}, {"sequence": "AATTTAATTATGGTAACACACAATAAAAAAAAATCT [CACACA_site568]", "gcPBM binding intensity (ln)": "7.74 ± 0.75"}, {"sequence": "ATATTTTATTTTCCATGTACACAAAAAAAAAAAAAA [XGTACX_site8327]", "gcPBM binding intensity (ln)": "8.26 ± 0.39"}, {"sequence": "AAGAAAATAAAGGATATGAAAAATAAAAAAAAGGAG [TGCATGCA_negctrl_site265]", "gcPBM binding intensity (ln)": "8.68 ± 0.085"}, {"sequence": "AGGTTAAAAATAAATACACACATTTTATGGGTGTAT [CACACA_site4702]", "gcPBM binding intensity (ln)": "7.45 ± 0.61"}, {"sequence": "ATATTATTAATATATTGTACTTTTTTTTTTTTATTT [XGTACX_site496]", "gcPBM binding intensity (ln)": "7.92 ± 0.042"}, {"sequence": "ATATGTATTTAATTCACACAAAAATATGTTCATGAA [CACACA_site5223]", "gcPBM binding intensity (ln)": "7.7 ± 0.52"}, {"sequence": "CACATTATGTATCATACACACAAATAAATATATAAT [CACACA_site4505]", "gcPBM binding intensity (ln)": "7.75 ± 0.42"}, {"sequence": "CCTTTATATTATAAAAGTACATAATATTTTATAAGT [XGTACX_site1629]", "gcPBM binding intensity (ln)": "7.79 ± 0.2"}, {"sequence": "AGCTCTATATTTTACACATGCGATTTGGATATATAT [TGCATGCA_site105]", "gcPBM binding intensity (ln)": "7.78 ± 0.61"}, {"sequence": "TAAATATATATCATCACACACACATACATAAATATA [CACACA_site183]", "gcPBM binding intensity (ln)": "7.72 ± 0.47"}, {"sequence": "ATATTACAACGTAACGAATATTTCATAAATTCTTAA [CACACA_negctrl_site770]", "gcPBM binding intensity (ln)": "7.38 ± 0.71"}]}]}
